Source: publication PMC4336329 (PLoS ONE, 2015)
About 2,200 (0.71%) of roughly 310,000 compounds showed an effect of 50% or more. The effect is printed as a negative number. The list shows a part of the results.

biological target: human ether-à-go-go-related gene (hERG) potassium channel (human, UniProt Q12809); test: primary screen, population patch clamp on CHO cells stably expressing hERG
Sequence (Q12809 whole entry, looked up): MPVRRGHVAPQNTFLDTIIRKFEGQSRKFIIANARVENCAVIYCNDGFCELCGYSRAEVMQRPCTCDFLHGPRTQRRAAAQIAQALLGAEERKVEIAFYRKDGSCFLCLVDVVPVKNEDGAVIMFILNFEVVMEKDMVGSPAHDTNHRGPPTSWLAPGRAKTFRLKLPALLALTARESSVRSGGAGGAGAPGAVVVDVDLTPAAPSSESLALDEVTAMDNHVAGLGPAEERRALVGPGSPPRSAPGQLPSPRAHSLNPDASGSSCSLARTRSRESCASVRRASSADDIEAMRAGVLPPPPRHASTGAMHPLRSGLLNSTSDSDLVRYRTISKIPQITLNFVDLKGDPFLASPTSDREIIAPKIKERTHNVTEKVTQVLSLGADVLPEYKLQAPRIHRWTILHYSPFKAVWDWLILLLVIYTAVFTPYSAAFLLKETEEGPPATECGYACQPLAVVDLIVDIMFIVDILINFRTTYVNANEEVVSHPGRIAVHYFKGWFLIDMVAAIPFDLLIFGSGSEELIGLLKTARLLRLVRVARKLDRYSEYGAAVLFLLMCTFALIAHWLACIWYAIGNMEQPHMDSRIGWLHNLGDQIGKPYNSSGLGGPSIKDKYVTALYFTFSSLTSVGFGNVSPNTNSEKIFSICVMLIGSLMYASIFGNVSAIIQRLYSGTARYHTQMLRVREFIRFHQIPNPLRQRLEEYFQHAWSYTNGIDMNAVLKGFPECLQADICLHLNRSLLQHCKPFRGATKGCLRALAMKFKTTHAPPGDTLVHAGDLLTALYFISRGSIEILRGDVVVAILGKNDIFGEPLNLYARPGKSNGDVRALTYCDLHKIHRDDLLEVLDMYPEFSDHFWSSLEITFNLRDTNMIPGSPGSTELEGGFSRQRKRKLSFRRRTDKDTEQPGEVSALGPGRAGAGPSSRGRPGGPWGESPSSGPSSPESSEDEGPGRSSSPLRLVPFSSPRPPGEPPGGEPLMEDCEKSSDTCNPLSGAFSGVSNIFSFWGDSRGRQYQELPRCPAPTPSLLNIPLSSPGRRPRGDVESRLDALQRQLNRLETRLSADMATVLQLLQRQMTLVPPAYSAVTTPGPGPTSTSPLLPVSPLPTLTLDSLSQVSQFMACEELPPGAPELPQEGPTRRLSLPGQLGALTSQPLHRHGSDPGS

Row | SMILES | hERG current change (%, negative = inhibition) at 1uM [%]
1 | COC(=O)[C@@H]1C[C@]2(OC(=O)c3ccccc3)C=CC(=O)C[C@@H]2N1C(=O)OCc1ccccc1 | 11.9
2 | N#CC1=C(N)Oc2cc(N)ccc2C1c1ccc(F)cc1 (stereo not drawn) | 7.68
3 | c1cncc(-c2nc3ccccc3o2)c1 | 3.36
4 | COC(=O)c1[nH]c2ccc(C)cc2c1NS(=O)(=O)c1ccc(F)c(C)c1 | 7.49
5 | CCOc1ccccc1-n1c(SCC(=O)NC(C)CC)nnc1-c1ccoc1C (stereo not drawn) | -2.44
6 | Cc1cc(C)cc(NC(=S)NCc2cccn2C)c1 | 8.46
7 | C/C(=N\NC(=O)c1ccc(O)cc1)c1cccc(NC(=O)c2ccccc2C)c1 | 6.59
8 | O=C(Nc1nc(-c2ccc([N+](=O)[O-])cc2)cs1)c1c(F)cccc1F | 10.3
9 | O=C(NCC(=O)N1CCN(C(=O)c2ccco2)CC1)c1cccc(Cl)c1 | -5.44
10 | CCn1ccnc1CNC(=O)C1CCC(=O)N(Cc2ccccc2F)C1 (stereo not drawn) | 14.1
11 | COCCNC(=O)c1ccc(C(=O)C(=O)c2ccccc2)cc1 | 9.45
12 | CC(C)CC(=O)Nc1cccc(-c2nc3ccccc3o2)c1 | 2.35
13 | Fc1ccc(N/N=C/c2ccc(N3CCOCC3)cc2)c(F)c1 | 9.29
14 | Cc1ccccc1S(=O)(=O)Cc1ccc(C(=O)NC2CCCCC2)o1 | 11.6
15 | COc1ccc(CCNC(=O)c2ccc3ccccc3n2)cc1OC | 9.06
16 | CCC(=O)c1cn(CC(=O)Nc2ccccc2F)c2ccccc12 | 20.3
17 | CCC1CN(C)C2Cc3c([nH]c4ccccc34)C(=O)CC1C2C(=O)OC (stereo not drawn) | 9.84
18 | CCOC(=O)N1CCN(CC(=O)Nc2ccccc2C(=O)Nc2ccccc2)CC1 | 1.36
19 | CCOCCn1ccc2c(OCC(=O)NCc3ccccc3)cccc2c1=O | -2.94
20 | O=C(c1ccc(NC2=NC3CS(=O)(=O)CC3S2)cc1)N1CCN(c2ccccc2F)CC1 (stereo not drawn) | 10.5
21 | CCOc1ccccc1N1CCN(S(=O)(=O)c2ccc(Cl)s2)CC1 | 13.3
22 | CC(=O)Nc1ccc(N2C(=O)CSC2c2cccc([N+](=O)[O-])c2)cc1 (stereo not drawn) | 13.1
23 | COc1ccccc1C(=O)OCC(=O)NC(C)CCc1ccccc1 (stereo not drawn) | 9.63

Row | SMILES | hERG current change (%, negative = inhibition) at 1uM [%]
24 | Cc1cccc(Oc2ncnc3onc(C)c23)c1 | 6.6
25 | COCCCNC(=O)CSc1ccc(Cl)cc1 | 2.97
26 | CN1CCN(/N=C/c2ccc(-c3ccc([N+](=O)[O-])cc3)o2)CC1 | -31.3
27 | C=CCOc1c(CNc2nccs2)cccc1OCC | 9.6
28 | Cc1ccc2nc(-c3ccccn3)c(Nc3ccccc3C)n2c1 | -0.639
29 | Cc1c(/C(O)=C2/C(=O)C(=O)N(CCN3CCOCC3)C2c2cccnc2)cnn1-c1ccccc1 (stereo not drawn) | 16.9
30 | Cc1ccnc(Nc2nc(-c3ccc(O)cc3)cs2)c1 | 14.2
31 | CCOC(=O)c1c(-c2cccc(C)c2)csc1NC(=O)C1CC=CCC1C(=O)O (stereo not drawn) | -2.92
32 | Cc1ccc(NC(=O)Cc2nnc(SCC(=O)Nc3nncs3)n2C)c(C)c1 | 16.2
33 | COc1ccccc1N(C)S(=O)(=O)c1ccc(C(=O)OCC(=O)NCc2cccs2)cc1 | 6.49
34 | COc1ccc(OC)c2nc(-c3ccc4c(c3)OCO4)ccc12 | 13.8
35 | CC1(C)SC(=S)N(Cc2ccc3c(c2)OCO3)C1N(O)C(=O)NC1CCCCC1 (stereo not drawn) | 1.64
36 | CC1CCN(C(=O)CN2C(=O)c3cccc4cccc(c34)C2=O)CC1 | 14.7
37 | Cc1ccc(C(=O)O/N=C\c2ccc(N3CCOCC3)c([N+](=O)[O-])c2)cc1 | 15.7
38 | CC12CN(C(=S)Nc3ccccc3)CC(C)(CN(C(=S)Nc3ccccc3)C1)C2=O | 16.4
39 | CCC(Oc1ccccc1)C(=O)NCCOC (stereo not drawn) | 7.06
40 | O=c1[nH]c(CSc2nnc(Cc3ccccc3)o2)nc2ccccc12 | 11.7
41 | O=C(Nc1ccccc1-c1ccccc1)C1CCCN(c2ncccn2)C1 (stereo not drawn) | 14.4
42 | Cc1nn(C)c(C)c1S(=O)(=O)N1CCC(CO)(Cc2ccc(Cl)cc2)CC1 | 8.13
43 | CCOP(=O)(OCC)C(NC(=O)Nc1cccc(Cl)c1)C(N)=O (stereo not drawn) | -8.73
44 | COc1cc(C(c2c(C)[nH][nH]c2=O)c2c(C)[nH][nH]c2=O)ccc1OCc1ccc([N+](=O)[O-])cc1 | 15.4
45 | CCCn1ncc2c(Nc3ccc(C)c(C)c3)ncnc21 | 6.15
46 | N#C/C(C(=O)N1CCOCC1)=C1\Nc2ccccc2S1 | 6.67

Row | SMILES | hERG current change (%, negative = inhibition) at 1uM [%]
47 | O=S(=O)(Nc1cccc2c1CCCC2)c1ccc(Cl)cc1 | 5.33
48 | CCOC(=O)COc1c(Cl)cc(C2NC(=S)NC(c3ccccc3)=C2C(C)=O)cc1OCC (stereo not drawn) | 4.09
49 | CN(Cc1cccs1)C(=O)Cn1cnc2ccccc2c1=O | 5.31
50 | Nc1nonc1-c1noc(CCCN2C(=O)c3ccccc3C2=O)n1 | -5.33
51 | COC(=O)c1cc(Br)c(=O)n(CCN(C(C)C)C(C)C)c1 | 0.568
52 | Cc1ccc(C(=O)COC(=O)C2C3C=CC(C3)C2C(=O)OCC(=O)c2ccc(C)c(C)c2)cc1C (stereo not drawn) | 11.2
53 | Cc1oc(=O)c(NC(=O)c2ccccc2)cc1C(N)=O | 13.4
54 | CCOC(=O)C1=NNC2(CC(=O)N(c3cccc(C)c3)C2=O)C1 (stereo not drawn) | 11.1
55 | CCOc1ccccc1/C=N/Nc1nc2ccccc2o1 | 14.2
56 | CCn1c(CNC(=O)c2ccc(Cl)cc2)nnc1SCC(=O)NC1=NCCS1 | 9.77
57 | CC1CN(c2nc(Nc3ccccc3)nc(N)c2[N+](=O)[O-])CC(C)O1 (stereo not drawn) | 4.17
58 | CSc1nnc(NC(=O)CCc2ccccc2)s1 | -1.05
59 | CSc1nsc(SCc2ccc(Cl)cc2)n1 | 12.3
60 | N#Cc1ncc(C(F)(F)F)cc1Sc1ccc(N)cc1 | 1.58
61 | N#CC1=C2SCN(Cc3ccco3)CN2C(=O)CC1c1cccc2ccccc12 (stereo not drawn) | -2.77
62 | CS(=O)(=O)c1ccccc1C(=O)Nc1cc(Cl)ccc1-n1cncn1 | 11.8
63 | O=C(NN1C(=O)/C(=C/c2cccc(O)c2)SC1=S)c1ccccc1O | 9.58
64 | O=C(/C=C/c1ccc([N+](=O)[O-])cc1)NCCc1ccc(F)cc1 | -16.2
65 | CCn1c(CSc2nnc(-c3ccncc3)n2CCOC)nc2cc(C(=O)O)ccc21 | 13.8
66 | CCOC(=O)C1=C(COC(=O)Cc2ccc(Cl)cc2)NC(=O)NC1C (stereo not drawn) | 0.0072
67 | COc1ccccc1NS(=O)(=O)c1cc2c(cc1C)NC(=O)CO2 | -0.0846
68 | Cc1ccc(NC(=O)c2ccc3ccccc3n2)cc1S(=O)(=O)N1CCOCC1 | 14
69 | CC1CCN(C(=O)c2[nH]cnc2C(=O)N2CCN(C(=O)OC(C)(C)C)CC2)CC1 | 16.7

Row | SMILES | hERG current change (%, negative = inhibition) at 1uM [%]
70 | C1=C(CCNc2ncnc3c2cnn3-c2ccccc2)CCCC1 | 9.5
71 | Cc1cc2c(cc1S(=O)(=O)N1CCCC1)n(C)c(=O)c(=O)n2C | 2.73
72 | COC(=O)c1c(NC(=O)C(Cl)Cl)sc2c1C(C(=O)OC)CC2 (stereo not drawn) | 3.77
73 | COc1ccc(N(CC(=O)Nc2cccc(SC)c2)S(C)(=O)=O)cc1 | 4.61
74 | COc1ccc(C(=O)/C=C/Nc2ccc([N+](=O)[O-])cc2C)c(OC)c1 | 4.32
75 | COc1ccccc1CN1CCNC(=O)C1CC(=O)NCCc1cnccn1 (stereo not drawn) | 14
76 | Nc1nc(Cl)cc(N2CCCC2)n1 | -2.19
77 | Cc1cc(NC(=O)C23CC4CC(C2)CC(n2cnc([N+](=O)[O-])n2)(C4)C3)no1 | -8.98
78 | CCOP(=O)(c1ccc(N(C)C)cc1)C(O)c1ccccc1 (stereo not drawn) | 12.1
79 | CCOc1ccc(C(=O)Nc2ccccc2N2CCOCC2)cc1 | 6.46
80 | COC(=O)CCSC(=S)N1CCOCC1 | 7.16
81 | COCCC1CCCCN1C(=O)c1ccc(OC)c(OC2CCN(C(C)=O)CC2)c1 (stereo not drawn) | 9.84
82 | COc1ccc(Nc2ncc3c(n2)CC(c2ccccc2)CC3=O)cc1 (stereo not drawn) | -2.12
83 | CCOc1ccc2nc(NS(=O)(=O)c3ccc4c(c3)n(C)c(=O)n4C)sc2c1 | 17.8
84 | CCOC(=O)C1(Cc2ccccc2)CCN(Cc2cccn2-c2nccs2)CC1 | -69.8
85 | COc1ccccc1OCCNC(=O)/C=C/c1ccc([N+](=O)[O-])cc1 | -9.26
86 | COC(=O)CSC1=C(C#N)C(c2sccc2C)CC(=O)N1 (stereo not drawn) | 6.9
87 | C=C(C)Cn1c(SCC(=O)NCc2ccco2)nc2sc3c(c2c1=O)CCC3 | 4.23
88 | Cc1cc(O)ccc1-c1cnc2ccccc2n1 | 5.99
89 | Cc1nn(C/C(C#N)=N\O)c(C)[n+]1N.[Cl-] | 11.8
90 | CCSc1nc2c(c(=O)[nH]c(=O)n2C)n1Cc1ccc(Cl)cc1 | 13.9
